In patent US8933202B2, “AXL antibodies” (U3 Pharma GmbH, priority 2007, dated 2015):

B1: 11D5: antagonistic rat anti-AXL monoclonal antibody, rat IgG2a (antibody)
heavy: EVQLQESGPGLVKPSQSLSLTCSVTGYSITSNYWGWIRKFPGNKMEWIGHITNSGNTTYNPSLKSRISISRDTSRNQFFLQLNSVTTEDTATYYCAKGAFDYWGQGVMVTVSS[left out - human IgG1 constant region]
light: DIQMTQSPSSMSTSLGDRVTITCRASQDIGNYLSWFQQKVGKSPRRMIYGAIKLAVGVPSRFSGSRSGSDYSLTISSLESEDMAIYYCLQYIQFPLTFGSGTKLELKRTVAAPSVFIFPPSDEQLKSGTASVVCLLNNFYPREAKVQWKVDNALQSGNSQESVTEQDSKDSTYSLSSTLTLSKADYEKHKVYACEVTHQGLSSPVTKSFNRGEC
modifications: 11D5 HC gamma1; 11D5 LC kappa
notes: antagonistic rat anti-AXL monoclonal antibody, rat IgG2a
B2: ch11B7: chimeric anti-AXL antibody, derivative of rat 11B7 (antibody)
heavy: EVQLQESGPGLVKPSQSLSLTCSVTGYSITSNYWGWIRKFPGDKMEWMGYITYSGSTSYNPSLKSRISITRDTSKNQFFLQLNSVTSEDTATYYCAITTFYYWGQGVMVTVSS[left out - human IgG1 constant region]
light: DIQMTQAPSSLPASLGDRVTITCRASQDIGNYLRWFQQKPGKSPRLMISGATNLAAGVPSRFSGSRSGSDYSLTISSLESEDMADYYCLQSKESPWTFGGGTKLELKRTVAAPSVFIFPPSDEQLKSGTASVVCLLNNFYPREAKVQWKVDNALQSGNSQESVTEQDSKDSTYSLSSTLTLSKADYEKHKVYACEVTHQGLSSPVTKSFNRGEC

Tests used:
[1] = system: p42/p44 MAP-Kinase; assay: p42/p44 MAP-Kinase phosphorylation ELISA; format: cell-based, human; settings: 10 μg/ml antibody, 400 ng/ml Gas6; CaSki cervical cancer cells
Procedure: Next, ELISA experiments were performed in order to investigate whether the rat anti-AXL antibodies of the invention are able to block ligand Gas6-mediated activation of p42/p44 MAP-Kinase. Gas6-mediated p42/p44 MAP-Kinase activation was detected by increased protein (Thr202/Tyr204) phosphorylation. In brief, on the first day, 2×10^4 cells per well were seeded in flat-bottom 96 well plates. The next day, normal growth medium was replaced by serum-free medium to starve cells for 36 h. […] Medium was flicked out and cells were fixed with 4% formaldehyde in PBS (pH 7.5) for 30 min at room temperature. Formaldehyde solution was removed and cells were washed twice with wash buffer (PBS, 0.1% Tween 20). Cells were quenched with 1% H2O2, 0.1% NaN3 in wash buffer and incubated for 20 min at room temperature. Afterwards, the quenching solution was removed, and cells were washed twice with wash buffer and blocked with PBS, 0.5% BSA for 4 h at 4° C. Anti-phospho-p42/p44 MAP Kinase (Thr202/Tyr204) primary antibody (polyclonal rabbit; Cell Signaling #9101) diluted 1:500 in PBS, 0.5% BSA, 5 mM EDTA was added over night at 4° C. On day 4, the antibody solution was removed and the plate was washed 3× with wash buffer. […] Tetramethylbenzidine (TMB, Calbiochem) was added and monitored at 620 nm.

[2] = system: NIH3T3-AXL cl.7 fibroblasts; assay: AlamarBlue Gas6-induced proliferation assay; format: cell-based; settings: 20 μg/ml antibody, with or without 400 ng/ml Gas6, 96 h
Procedure: In vitro experiments were conducted in order to determine the ability of the rat anti-AXL antibodies of the invention to inhibit Gas6-induced cell proliferation. For this purpose, 2,500 NIH3T3-AXL cl.7 fibroblasts per well were seeded in FCS-containing medium on 96 well plates over night. […] Cells were treated with or without 400 ng/ml mouse Gas6 (R&D Systems) by adding ligand directly to the antibody solution, and were then left to grow for 96 h. AlamarBlue™ (BIOSOURCE #DAL1100) was added and incubated at 37° C. in the dark. Absorbance was measured at 590 nm every 30 min. The data were taken 4 h after addition of AlamarBlue™.

[3] = system: serum-starved NIH3T3-AXL cl.7 fibroblasts; assay: Caspase-3/7 assay, Gas6-mediated anti-apoptosis; format: cell-based; settings: 10 μg/ml antibody, with or without 400 ng/ml Gas6, compared to isotypic control antibody
Text: Induction of apoptosis and activation of caspases can result from a variety of stimuli including growth factor withdrawal, exposure to chemotherapeutic agents or radiation, or initiation of the Fas/Apo-1 receptor-mediated cell death process. […] In the present example we examined whether rat anti-AXL antibodies of the invention interfere with Gas6-mediated anti-apoptosis of serum-starved NIH3T3-AXL cl.7 fibroblasts, and thus induce apoptosis. Apoptosis rates were thereby determined by measurement of the cellular caspase-3/7 activity. For this purpose, NIH3T3-AXL cl.7 cells were seeded at a density of 1.5×10^3 cells per well in black clear-bottom 96 well plates (100 μl/well). The day after, normal growth medium was replaced by serum-reduced medium (DMEM, 0.5% FCS) to starve cells over night for 24 h. […] The cells were washed with PBS, covered with 60 μl of DMEM, 0% FCS, 0.01% BSA, and 10 μl of the respective antibody solution were added. After 1 h incubation at 37° C., 10 μl of DMEM, 0% FCS, 0.01% BSA with or without 3.2 μg/ml mouse Gas6 (R&D Systems) were added (the final concentrations of antibody and Gas6 were 10 μg/ml and 400 ng/ml, respectively), and cells were incubated at 37° C. for another 5 h. […] Using a Victor plate reader (Perkin Elmer), the fluorescence of each well was measured at an excitation wavelength of 485 nm and an emission wavelength of 530 nm.

[4] = system: p42/p44 MAP-Kinase; assay: p42/p44 MAP-Kinase phosphorylation ELISA, rat versus chimeric antibody; format: cell-based, human; settings: 50 ng/ml to 10 μg/ml antibody, 400 ng/ml Gas6; CaSki
Procedure: To additionally verify whether the rat anti-Axl antibodies of the invention and the corresponding chimeric anti-Axl antibodies of the invention were also able to inhibit Gash-induced activation of p42/p44 MAP-Kinase in CaSki cervical cancer cells to similar extent, ELISA experiments were performed. Here, Gas6-induced p42/p44 MAP-Kinase activation was detected by increased protein (Thr202/Tyr204) phosphorylation. In brief, on the first day, 2×10^4 cells per well were seeded in flat-bottom 96 well plates. The next day, normal growth medium was replaced by serum-free medium to starve cells for 24 h. Thereafter, cells were pre-incubated with 50 ng/ml, 100 ng/ml, 300 ng/ml, 750 ng/ml, 1 μg/ml, and 10 μg/ml of rat anti-Axl antibody 11B7 or chimeric anti-Axl antibody ch11B7 for 1 h at 37° C. and then treated with or without 400 ng/ml Gas6 (R&D Systems) for 10 min at 37° C. Medium was flicked out and cells were fixed with 4% formaldehyde in PBS (pH 7.5) for 30 min at room temperature. Formaldehyde solution was removed and cells were washed twice with wash buffer (PBS, 0.1% Tween 20). Cells were quenched with 1% H2O2, 0.1% NaN3 in wash buffer and incubated for 20 min at room temperature. […] Tetramethylbenzidine (TMB, Calbiochem) was added and monitored at 620 nm.

Molecule	ligand-mediated p42/p44 MAP-Kinase activation (phosphorylation) [1]	cell proliferation [2]	anti-apoptosis (caspase-3/7 activity) [3]	Gas6-induced p42/p44 MAP-Kinase activation, concentration-dependent [4]
B1	able to reduce ligand-mediated p42/p44 MAP-Kinase activation	blocked Gas6-induced proliferation	reduced Gas6-mediated anti-apoptosis	–
B2	–	–	–	able to block Gas6-induced activation of p42/p44 MAP-Kinase in CaSki cervical cancer cells to similar extent
